Measurements from PubChem BioAssay AID1645887 (National Center for Advancing Translational Sciences (NCATS), 2021).
Values joined by “and” are separate entries in the source; they are usually repeats but may differ in a detail not shown here. Equal values may be shown once. In all, about 16,000 compounds went through this assay and about 40 (0.2%) were called active. Another 1% or so got no clear call; they are omitted. Calls follow the shape of the dose curve; as a rule, active = well fitted activation curve with a large enough effect; inconclusive = small, poorly fitted or top-dose-only effect, or another doubt; inactive = no such curve, though single readings can be large or run the other way. The list shows a part of the results.

Target: Rap guanine nucleotide exchange factor 4 (Homo sapiens) (UniProt Q8WZA2)
Chain of UniProt Q8WZA2 (Q8WZA2 whole entry, looked up): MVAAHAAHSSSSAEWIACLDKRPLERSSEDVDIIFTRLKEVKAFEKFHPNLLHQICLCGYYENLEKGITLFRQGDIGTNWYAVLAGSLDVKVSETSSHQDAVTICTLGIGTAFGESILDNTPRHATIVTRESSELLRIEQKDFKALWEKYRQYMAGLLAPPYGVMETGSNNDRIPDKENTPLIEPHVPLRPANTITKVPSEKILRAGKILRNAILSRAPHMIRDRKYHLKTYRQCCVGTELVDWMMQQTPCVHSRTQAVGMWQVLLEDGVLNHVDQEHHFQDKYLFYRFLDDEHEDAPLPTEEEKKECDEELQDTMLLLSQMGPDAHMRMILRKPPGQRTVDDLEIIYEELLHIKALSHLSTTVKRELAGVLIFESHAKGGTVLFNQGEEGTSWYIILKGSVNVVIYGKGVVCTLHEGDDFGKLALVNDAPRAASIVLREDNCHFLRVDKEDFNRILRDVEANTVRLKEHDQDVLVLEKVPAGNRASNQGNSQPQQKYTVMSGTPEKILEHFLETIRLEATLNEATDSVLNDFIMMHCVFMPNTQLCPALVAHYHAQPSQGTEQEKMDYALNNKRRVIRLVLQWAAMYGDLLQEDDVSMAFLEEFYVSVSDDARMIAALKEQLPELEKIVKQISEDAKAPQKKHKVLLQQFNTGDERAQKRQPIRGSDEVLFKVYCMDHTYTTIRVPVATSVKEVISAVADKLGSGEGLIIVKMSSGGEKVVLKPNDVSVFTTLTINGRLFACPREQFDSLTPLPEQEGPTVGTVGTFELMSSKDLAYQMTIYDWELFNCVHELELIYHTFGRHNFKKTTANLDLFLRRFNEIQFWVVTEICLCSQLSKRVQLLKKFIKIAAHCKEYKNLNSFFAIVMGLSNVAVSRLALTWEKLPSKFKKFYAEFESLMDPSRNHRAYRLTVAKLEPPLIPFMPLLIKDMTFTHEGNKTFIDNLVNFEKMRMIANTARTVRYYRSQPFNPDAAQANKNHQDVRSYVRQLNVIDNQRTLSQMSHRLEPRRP
Assay: Validation qHTS for agonist of cAMP-regulated guanine nucleotide exchange factor 4 (EPAC2);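 also: exchange makes BODIPY-GDP fluorescence drop when released from Rap1B; series mostly up to about 150 µM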
Conditions: EPAC2 Rap1B BODIPY-GDP exchange, fluorescence; activation: stronger effect = higher value
Summary of the method: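 Signal normalized against 6.5 mM cAMP as agonist control. Mix of EPAC2 (100 nM), RAP1B-BODIPY-GDP (250 nM) and GDP (50 uM) was read kinetically at 480/540 nm, every 5 min over 30 min, after 5 min room-temperature incubation with compound.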
% is scaled to controls: 0 for no effect and ±100 for the full control effect.

**Q.** With `N#Cc1cccc(NC(=O)N2CCCC3(CCN(C(=O)Oc4ccccc4)CC3)C2)c1` as the compound, how does the activation read?
**A.** inactive: -7.22%

**Q.** Which activation does the source give for `[O]=[Cr](=[O])([OH])[O][Cr](=[O])(=[O])[OH]` here?
**A.** inactive: -19.4% and inactive: 2.41%

**Q.** How did the activation turn out when `c1ccc(CN2CCC3(CCNCC3)CC2)cc1` was run?
**A.** inactive: -9.67%

**Q.** Which activation does the source give for `CC(C)(C)NCC(O)c1cc(Cl)c(N)c(C(F)(F)F)c1` (configuration not stated) here?
**A.** inactive: -16.5%

**Q.** With `CN(C)CCc1c[nH]c2ccc(O)cc12` as the compound, how does the activation read?
**A.** inactive: -3.02%

**Q.** For `COC([CH2][Hg])CNC(=O)c1ccccc1OCC(=O)O` (configuration not stated), which activation is on record?
**A.** inactive: -0.449%

**Q.** With `COC(=O)N1CCC2(CCCN(C)C2)CC1` as the compound, how does the activation read?
**A.** inactive: -1.67%

**Q.** For `C[C@@]12CCC(=O)C[C@@H]1CC[C@@H]1[C@@H]2CC[C@]2(C)C(=O)CC[C@@H]12`, which activation is on record?
**A.** inactive: -12%

**Q.** For `CN1CC[C@@]2(CCCN(C(=O)c3ccncc3)C2)C1`, which activation is on record?
**A.** inactive: -14.8%

**Q.** For `CC1(C)OC1COc1c2occc2cc2ccc(=O)oc12` (configuration not stated), which activation is on record?
**A.** inactive: -13.3%

**Q.** `CCCC[N+]1(C)[C@@H]2CC(OC(=O)[C@H](CO)c3ccccc3)C[C@H]1[C@@H]1O[C@@H]12` (some centres not stated) was tested. Which activation did it give?
**A.** inactive: 14.7%

**Q.** How did the activation turn out when `C=CCN(C1=NCCN1)c1c(Cl)cccc1Cl` was run?
**A.** inactive: -2.78% and inactive: -15.8%

**Q.** Which activation does the source give for `CC[C@@]1(O)C(=O)OCc2c1cc1n(c2=O)Cc2cc3ccccc3nc2-1` here?
**A.** inactive: 0.565% and inactive: -14.7% and inactive: -17.1%

**Q.** Which activation does the source give for `CN(C)[C@@H]1C(=O)C(C(N)=O)=C(O)[C@@]2(O)C(=O)C3=C(O)c4c(O)ccc(Cl)c4[C@@](C)(O)[C@H]3C[C@@H]12` here?
**A.** inactive: -6.83%

**Q.** With `N#C/C(=C/c1ccc(O)c(O)c1)C(N)=S` as the compound, how does the activation read?
**A.** inactive: -17.9%

**Q.** How did the activation turn out when `O=C(c1ccco1)N1CCC[C@@]2(CCN(Cc3ccncc3)C2)C1` was run?
**A.** inactive: -6.57%

**Q.** How did the activation turn out when `CN1CCN(C(=O)O[C@@H]2c3nccnc3C(=O)N2c2ccc(Cl)cn2)CC1` was run?
**A.** inactive: -20.4%

**Q.** For `CC[N+](CC)(CCCNC1=CC(=O)C(NCCC[N+](CC)(CC)Cc2ccccc2)=CC1=O)Cc1ccccc1`, which activation is on record?
**A.** inactive: -6.48% and inactive: 2.59%

**Q.** How did the activation turn out when `O=C1C[C@@H]2OCC=C3CN4CC[C@]56c7ccccc7N1[C@H]5[C@H]2[C@H]3C[C@H]46` was run?
**A.** inactive: -16.8%

**Q.** `O=C/C=C/c1ccccc1` was tested. Which activation did it give?
**A.** inactive: -5.14%

**Q.** How did the activation turn out when `Clc1cccc(N2CCNCC2)c1` was run?
**A.** inactive: -1.72% and inactive: 7.77%

**Q.** With `COc1ccc2[nH]cc(CCNCc3ccc(Br)cc3)c2c1` as the compound, how does the activation read?
**A.** inactive: 15.2%

**Q.** Which activation does the source give for `CCCN(CCC)C(=O)Cc1c(-c2ccc(Cl)cc2)nc2ccc(Cl)cn12` here?
**A.** inactive: -8.75%

**Q.** `Clc1ccc(CSC(Cn2ccnc2)c2ccc(Cl)cc2Cl)cc1` (configuration not stated) was tested. Which activation did it give?
**A.** inactive: -14.8% and inactive: 0.906%

**Q.** `O=C(CN1CCCCC1c1cccnc1)c1ccccc1` (configuration not stated) was tested. Which activation did it give?
**A.** inactive: 6.09%

**Q.** How did the activation turn out when `CN1c2ccccc2C(NCCCCCCC(=O)O)c2ccc(Cl)cc2S1(=O)=O` (configuration not stated) was run?
**A.** inactive: 0.0396%

**Q.** `CCCCCCC(=O)O[C@H]1CC[C@H]2[C@@H]3CC[C@H]4CC(=O)C=C(C)[C@]4(C)[C@H]3CC[C@]12C` was tested. Which activation did it give?
**A.** inactive: -20.2%

**Q.** Which activation does the source give for `Oc1c(Br)cc(Br)cc1Br` here?
**A.** inactive: -33.5%

**Q.** How did the activation turn out when `COc1cc(C[C@H](C)N)c(OC)cc1Br` was run?
**A.** inactive: -10.4%

**Q.** With `NCCc1cc(O)c(O)cc1O` as the compound, how does the activation read?
**A.** inactive: 18.6%

**Q.** Which activation does the source give for `C#CCOS(=O)OC1CCCCC1Oc1ccc(C(C)(C)C)cc1` (configuration not stated) here?
**A.** inactive: -23.9%

**Q.** Which activation does the source give for `CC(C)C1C(=O)N2CCCC2[C@]2(O)O[C@@](NC(=O)[C@@H]3C=C4c5cccc6[nH]cc(c56)C[C@H]4N(C)C3)(C(C)C)C(=O)N12` (some centres not stated) here?
**A.** inactive: 13.6%

**Q.** `CCC(=O)O[C@@](Cc1ccccc1)(c1ccccc1)[C@@H](C)CN(C)C` was tested. Which activation did it give?
**A.** inactive: -14.9%

**Q.** Which activation does the source give for `CN1CC[C@@]23CCCCC2C1Cc1ccc(O)cc13` (some centres not stated) here?
**A.** inactive: -9.33%

**Q.** Which activation does the source give for `NNc1ccccc1` here?
**A.** inactive: -13.2%

**Q.** Which activation does the source give for `C[C@]12Cc3cn4c(nc3C=C1CCC1C2CC[C@@]2(C)[C@H]1CC[C@@]2(O)C#N)nc1ccccc14` (some centres not stated) here?
**A.** inactive: -3.78%

**Q.** With `C=C(C)c1cc2cc(C(C)=O)c(O)cc2o1` as the compound, how does the activation read?
**A.** inactive: -4.23% and inactive: -25.5%

**Q.** How did the activation turn out when `CN1[C@H]2CC[C@@H]1[C@@H](C(=O)O)[C@@H](OC(=O)c1ccccc1)C2` was run?
**A.** inactive: 5.23% and inactive: -2.66%

**Q.** `Cc1cc(OC(=O)N2CCCCC2)c(C(C)C)cc1[N+](C)(C)C` was tested. Which activation did it give?
**A.** inactive: -5.78%

**Q.** How did the activation turn out when `CC(=O)O[C@@H]1C[C@@]2(C)C(c3ccoc3)C[C@H]3O[C@]32[C@]2(C)C(=O)C(O)=C3C(C)(C)C(=O)C=C[C@]3(C)C12` (some centres not stated) was run?
**A.** inactive: 6.07%

**Q.** `CC(C)OC(=O)Nc1cccc(Cl)c1` was tested. Which activation did it give?
**A.** inactive: -17.9%

**Q.** How did the activation turn out when `c1ccc2nc(N3CCNCC3)ccc2c1` was run?
**A.** inactive: 6.75% and inactive: -5.41% and inactive: -15.7%

**Q.** For `Clc1ccc(CO/N=C(\Cn2ccnc2)c2ccc(Cl)cc2Cl)c(Cl)c1`, which activation is on record?
**A.** inactive: 14.4%

**Q.** Which activation does the source give for `C=C[C@H]1CN2CCC1C[C@@H]2C(O)c1ccnc2ccccc12` (some centres not stated) here?
**A.** inactive: -19.9%

**Q.** How did the activation turn out when `C[C@@H](N)C(=O)c1ccccc1` was run?
**A.** inactive: -7.1%

**Q.** For `F/C(COc1ccc2c(c1)[nH]c1ccccc12)=C1/CN2CCC1CC2`, which activation is on record?
**A.** inactive: -15.2%

**Q.** With `O=C1NCN(c2ccccc2)C12CCN(CC1COc3ccccc3O1)CC2` (configuration not stated) as the compound, how does the activation read?
**A.** inactive: 0.612% and inactive: -9.94% and inactive: -8.61%

**Q.** With `O=C(Oc1ccccc1)N1CCC2(CCN(Cc3ccncc3)CC2)CC1` as the compound, how does the activation read?
**A.** inactive: -8.43%

**Q.** How did the activation turn out when `COc1c2c(cc3c1OCO3)C13C=CC(OC)CC1N(C2)CC3O` (configuration not stated) was run?
**A.** inactive: -3.21%

**Q.** With `CC(=O)OC1CN2CCC1CC2` (configuration not stated) as the compound, how does the activation read?
**A.** inactive: 13.7%

**Q.** For `CC(C)CN1CCCC2(CCN(C(=O)Oc3ccccc3)CC2)C1`, which activation is on record?
**A.** inactive: 3.97%

**Q.** How did the activation turn out when `CC1CC[C@@]2(OC1)OC1C(O)C3C4CC[C@H]5CC(O[C@@H]6O[C@@H](CO)[C@H](OC7OC(CO)C(O)C(OC8OCC(O)C(O)[C@H]8O)[C@@H]7O[C@@H]7OC(CO)[C@H](O)[C@@H](O[C@@H]8OC(CO)C(O)C(O)C8O)C7O)C(O)C6O)C(O)C[C@]5(C)C4CC[C@]3(C)C1C2C` (some centres not stated) was run?
**A.** inactive: 11%
